The campaign covered roughly 370,000 compounds. About 150 (0.041%) were called active. The shares of active, inactive and inconclusive entries below differ from those in the screen. Calls come from the whole dose curve; as a rule, active = well fitted inhibition curve with a large enough effect; inconclusive = small, poorly fitted or top-dose-only effect; inactive = flat fitted curve, though single readings scatter. Potencies of inconclusive entries are left out as doubtful fits.
molecular target: Beta-lactamase (Escherichia coli (strain K12)) (UniProt P00811); test: qHTS Inhibitors of AmpC Beta-Lactamase (assay with detergent); settings: AmpC hydrolysis of nitrocefin, absorbance 480 nm, 0.01% Triton; series mostly up to 114 µM; note: nearly all actives have a fitted effect of over 25% in size
Chain of UniProt P00811 (P00811 whole entry, looked up): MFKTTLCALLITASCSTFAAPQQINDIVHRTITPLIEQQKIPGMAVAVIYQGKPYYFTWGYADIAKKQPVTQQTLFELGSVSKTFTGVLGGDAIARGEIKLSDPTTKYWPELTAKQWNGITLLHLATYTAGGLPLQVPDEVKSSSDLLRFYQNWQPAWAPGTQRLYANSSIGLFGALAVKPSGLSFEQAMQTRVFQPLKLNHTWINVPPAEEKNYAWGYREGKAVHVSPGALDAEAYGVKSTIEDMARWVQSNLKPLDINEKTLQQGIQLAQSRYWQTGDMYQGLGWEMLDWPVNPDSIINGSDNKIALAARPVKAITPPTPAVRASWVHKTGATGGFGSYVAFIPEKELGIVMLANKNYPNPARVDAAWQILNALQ
In short: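 AmpC (5.3 nM in the dispensed reagent) in 20 mM phosphate pH 7.0 with 0.01% (detergent screen) or 0.0001% Triton X-100 was preincubated with compounds for 15 min at room temperature. Nitrocefin was then added from an 800 uM solution, and hydrolysis was followed at 480 nm.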
Potency is the fitted concentration of half-maximal effect; tags give direction and shape of the fitted curve.

Row | Structure (SMILES) | Potency
1 | Nc1nc(NCc2ccco2)nc(Nc2ccccc2)c1[N+](=O)[O-] | inactive
2 | Cc1cccc(-n2ccnc2SCC(=O)Nc2ccc3c(c2)OCO3)c1 | inactive
3 | CCn1c(SC(C)C(=O)NC2CCCc3ccccc32)nnc1-c1cccs1 (stereo not drawn) | inconclusive [inhibitor, full curve, poor fit]
4 | Cc1ccc(NC(=O)CN2CCN(C)CC2)cc1S(=O)(=O)N1CCOCC1 | inconclusive [inhibitor, full curve, poor fit]
5 | CN1CCN(c2ccc(S(=O)(=O)N3CCCCC3)cc2NC(=O)Cc2c(F)cccc2Cl)CC1 | inconclusive [inhibitor, full curve, poor fit]
6 | CC(=O)c1cccc(NC(=O)CC2CCCC2)c1 | inactive
7 | Cc1ccc(C2/C(=C(/O)c3cnn(-c4ccccc4)c3C)C(=O)C(=O)N2CCN2CCOCC2)o1 (stereo not drawn) | inactive
8 | Cc1cc2c3ccccc3ncn2n1 | inconclusive [inhibitor, full curve, poor fit]
9 | O=C(NCCCN1CCN(c2ccccc2F)CC1)c1cc2c(s1)-c1ccccc1OC2 | inactive
10 | Cc1c(C(=O)Nc2ccc(S(=O)(=O)N3CCOCC3)cc2)cccc1[N+](=O)[O-] | inconclusive [inhibitor, full curve, poor fit]
11 | FC(F)Sc1nc(-c2ccccc2)c(-c2ccccc2)n1C(F)F | inactive
12 | C#CCOCCOCCOCCNc1nc(N2CCN(C(=O)[C@H]([C@@H](C)CC)n3cc([C@@H](N)Cc4ccc(O)cc4)nn3)CC2)nc(N2CCN(C(=O)[C@H](Cc3cc4ccccc4[nH]3)n3cc([C@@H](N)CC(C)C)nn3)CC2)n1 | inconclusive [inhibitor, single point]
13 | CC1CCc2c(sc(NC(=O)COc3ccccc3C(C)(C)C)c2C#N)C1 (stereo not drawn) | inactive
14 | O=C(CSc1nc2c([nH]c3ccccc32)c(=O)n1-c1ccccc1)N1CCCCCC1 | inactive
15 | N#CCN(C(=O)COC(=O)CCCNC(=O)c1ccc(Cl)cc1)c1ccccc1 | inconclusive [inhibitor, full curve, poor fit]
16 | C[n+]1ccn(CC(=O)c2ccc(Cl)cc2)c1 | inconclusive [inhibitor, full curve]
17 | Cc1ccc(CNC(=O)C2CCCN(S(=O)(=O)c3cnc[nH]3)C2)cc1 (stereo not drawn) | inconclusive [inhibitor, partial curve, poor fit]
18 | Cc1ccc(SCC(=O)NCCCN2CCOCC2)cc1 | inconclusive [inhibitor, partial curve]
19 | O=C(O)Cn1nnc2ccccc21 | inactive
20 | Fc1ccc(-[n+]2nc(Nc3ccccc3)sc2-c2c3ccccc3cc3ccccc23)cc1 | inactive
21 | CCN(C(=O)COC(=O)/C=C/c1cccc([N+](=O)[O-])c1)c1c(N)n(Cc2ccccc2)c(=O)[nH]c1=O | inconclusive [inhibitor, full curve, poor fit]
22 | O=C(Cc1ccc(Br)cc1)Nc1ccc2[nH]ncc2c1 | inconclusive [inhibitor, full curve, poor fit]
23 | Cc1c(C)c2c(OCC(=O)NCc3ccncc3)cc3c(c2oc1=O)CCC(C)(C)O3 | inconclusive [inhibitor, full curve, poor fit]

Row | Structure (SMILES) | Potency
24 | O=S(=O)(Nc1ccn(-c2ccccc2)n1)c1ccc(Br)cc1 | inactive
25 | c1ccc(C2c3c(ccc4ccccc34)Oc3ncn4nc(-c5ccco5)nc4c32)cc1 (stereo not drawn) | inconclusive [inhibitor, full curve]
26 | COc1ccc(OC)c(C(=O)c2ccc(C(=O)Nc3ccc4ccccc4c3)cc2)c1 | inconclusive [inhibitor, partial curve, poor fit]
27 | Cc1ccc(NS(=O)(=O)c2cc(C(=O)NCCCN(C)C)ccc2Cl)cc1Cl | inconclusive [inhibitor, full curve, poor fit]
28 | Cc1ccccc1-n1c(/C=C/c2ccccc2F)nc2ccccc2c1=O | inactive
29 | CCn1nnnc1SCC(=O)Nc1cccc(C)n1 | inconclusive [inhibitor, full curve, poor fit]
30 | O=C(Nc1ccccc1N1CCCC1)c1cc(=O)[nH]c2ccccc12 | inconclusive [inhibitor, partial curve, poor fit]
31 | CCN1CCN(CCNC(=O)C2CCN(Cc3nc(-c4ccc(Cl)cc4)oc3C)CC2)CC1 | inconclusive [inhibitor, full curve, poor fit]
32 | CSc1nnc(Cc2sc(-c3ccccc3)nc2-c2ccccc2)o1 | inactive
33 | CCNc1cccc2c1C(=O)N(C)C2=O | inconclusive [inhibitor, full curve]
34 | Cc1[nH]c(=S)[nH]c(=O)c1CCOc1ccccc1 | inconclusive [inhibitor, partial curve, poor fit]
35 | CCOc1ccc(CN(C)C(=O)CCc2ccc(S(=O)(=O)N3CCCCCC3)cc2)cc1 | inconclusive [inhibitor, partial curve, poor fit]
36 | CC(C)(C)N(Cc1ccccc1)C(=O)c1ccc2c(c1)OCCO2 | inconclusive [inhibitor, full curve, poor fit]
37 | O=C(NNC(=O)C12CC3CC(CC(C3)C1)C2)c1ccccc1[N+](=O)[O-] | inactive
38 | O=C(COC(=O)C1CC1)Nc1ncc(Cl)cc1Cl | inactive
39 | Cc1ccc(NCc2nnc(SCC(N)=O)n2CCc2ccccc2)cc1 | inconclusive [inhibitor, single point]
40 | COc1cc(CNc2cccc(F)c2)cc(Br)c1O | inactive
41 | CC1CCN(Cc2ccc(NC(=O)CC3Oc4ccccc4NC3=O)cc2)CC1 (stereo not drawn) | inconclusive [inhibitor, full curve, poor fit]
42 | CCOC(=O)c1sc(NC(=O)c2c(OC)cccc2OC)nc1C | inconclusive [inhibitor, full curve, poor fit]
43 | CCCCNC(=O)c1ccccc1Cl | inactive
44 | CCN(CC)c1ncccc1C(=O)NCc1cccs1 | inconclusive [inhibitor, full curve, poor fit]
45 | O=C(c1cc2cc(Cl)ccc2oc1=O)N1CCCC1 | inconclusive [inhibitor, partial curve, poor fit]
46 | COc1ccc(OCc2cc(C(=O)N(C)C(C)c3ccon3)no2)c(Cl)c1 (stereo not drawn) | inactive

Row | Structure (SMILES) | Potency
47 | CN(C)S(=O)(=O)c1cccc(NC(=S)N/N=C/c2ccc(O)c(O)c2O)c1 | inactive
48 | COc1ccc(OCC(=O)OCC(=O)NCc2ccco2)cc1 | inactive
49 | CC(NC(=O)CN1CCC(C(N)=O)CC1)c1ccccc1 (stereo not drawn) | inconclusive [inhibitor, partial curve]
50 | COC(=O)C1=C(C)OC(N)=C(C#N)C1c1cc2cccc(C)c2nc1Cl (stereo not drawn) | inconclusive [inhibitor, single point]
51 | Clc1cccc(N/N=C/c2ccc(N3CCOCC3)cc2)c1 | inconclusive [inhibitor, full curve]
52 | CCCCN(CCCNC(=O)c1c(C)oc2nc[nH]c(=O)c12)Cc1ccccc1 | inconclusive [inhibitor, single point]
53 | O=C(Nc1ccc(Cl)cc1)N1CCSc2ccccc21 | inactive
54 | Cc1sc2ncnc(OCC(=O)N3CC(=O)Nc4ccccc43)c2c1C | inactive
55 | CCCCNC(=O)CCCn1c(=O)[nH]c2ccc(Br)cc2c1=O | inconclusive [inhibitor, single point]
56 | CCOC(=O)N1CCN(C(=O)c2cccc(OC)c2O)CC1 | inconclusive [inhibitor, full curve, poor fit]
57 | COc1cccc(/C=C/C(=C2/C(=O)N(c3ccccc3)N=C2C)c2ccccc2)c1OC | inconclusive [inhibitor, partial curve, poor fit]
58 | O=C(CN1CCN(S(=O)(=O)N2CCCCC2)CC1)Nc1cc(Cl)ccc1Cl | inconclusive [inhibitor, full curve, poor fit]
59 | Cc1cc(-c2ccc(S(=O)(=O)Nc3ccc(Cl)cc3C)cc2)on1 | inactive
60 | COc1ccc(/C=N/OCC(=O)NCC(C)C)c(OC)c1 | inconclusive [inhibitor, partial curve, poor fit]
61 | S=c1nc(-c2ccccc2Br)[nH][nH]1 | inconclusive [inhibitor, partial curve, poor fit]
62 | c1ccc2c(Nc3ccc4c(c3)OCCO4)c3c(nc2c1)CCCC3 | inconclusive [inhibitor, partial curve, poor fit]
63 | CN1CCc2c(sc3nc(SCC(=O)N4CCOCC4)nc(N)c23)C1 | inconclusive [inhibitor, partial curve, poor fit]
64 | Nc1nc(NCCOCCO)nc(NCc2ccccc2)c1[N+](=O)[O-] | inactive
65 | COc1ccc(C(=O)NC2(C(F)(F)F)NC(=O)N(CCCc3ccccc3)C2=O)c(OC)c1OC (stereo not drawn) | inconclusive [inhibitor, partial curve, poor fit]
66 | COc1ccc(-c2[nH]nc3c2C(c2ccccc2OC(=O)N2CCOCC2)C(C#N)=C(N)O3)cc1 (stereo not drawn) | inconclusive [inhibitor, single point]
67 | Cc1ccc(-c2noc(CSc3nnc(Cc4cccs4)n3-c3ccccc3)n2)cc1 | inconclusive [inhibitor, full curve, poor fit]
68 | CCOc1ccc2[nH]c(=O)c(CN(Cc3cccs3)C(CC)c3nnnn3C(C)(C)CC)cc2c1 (stereo not drawn) | inconclusive [inhibitor, partial curve]

— PubChem BioAssay AID485294 (National Center for Advancing Translational Sciences (NCATS), 2010)
